Source: paper PMC4336329 (PLoS ONE, 2015)
Screen size: about 310,000 compounds; about 2,200 (0.71%) showed an effect of 50% or more. Effects have a minus sign here. The list shows a part of the results.

The compounds below were run against human ether-à-go-go-related gene (hERG) potassium channel (human, UniProt Q12809) (assay: primary screen, population patch clamp on CHO cells stably expressing hERG).
Sequence of human ether-à-go-go-related gene (hERG) potassium channel (Q12809 whole entry, looked up): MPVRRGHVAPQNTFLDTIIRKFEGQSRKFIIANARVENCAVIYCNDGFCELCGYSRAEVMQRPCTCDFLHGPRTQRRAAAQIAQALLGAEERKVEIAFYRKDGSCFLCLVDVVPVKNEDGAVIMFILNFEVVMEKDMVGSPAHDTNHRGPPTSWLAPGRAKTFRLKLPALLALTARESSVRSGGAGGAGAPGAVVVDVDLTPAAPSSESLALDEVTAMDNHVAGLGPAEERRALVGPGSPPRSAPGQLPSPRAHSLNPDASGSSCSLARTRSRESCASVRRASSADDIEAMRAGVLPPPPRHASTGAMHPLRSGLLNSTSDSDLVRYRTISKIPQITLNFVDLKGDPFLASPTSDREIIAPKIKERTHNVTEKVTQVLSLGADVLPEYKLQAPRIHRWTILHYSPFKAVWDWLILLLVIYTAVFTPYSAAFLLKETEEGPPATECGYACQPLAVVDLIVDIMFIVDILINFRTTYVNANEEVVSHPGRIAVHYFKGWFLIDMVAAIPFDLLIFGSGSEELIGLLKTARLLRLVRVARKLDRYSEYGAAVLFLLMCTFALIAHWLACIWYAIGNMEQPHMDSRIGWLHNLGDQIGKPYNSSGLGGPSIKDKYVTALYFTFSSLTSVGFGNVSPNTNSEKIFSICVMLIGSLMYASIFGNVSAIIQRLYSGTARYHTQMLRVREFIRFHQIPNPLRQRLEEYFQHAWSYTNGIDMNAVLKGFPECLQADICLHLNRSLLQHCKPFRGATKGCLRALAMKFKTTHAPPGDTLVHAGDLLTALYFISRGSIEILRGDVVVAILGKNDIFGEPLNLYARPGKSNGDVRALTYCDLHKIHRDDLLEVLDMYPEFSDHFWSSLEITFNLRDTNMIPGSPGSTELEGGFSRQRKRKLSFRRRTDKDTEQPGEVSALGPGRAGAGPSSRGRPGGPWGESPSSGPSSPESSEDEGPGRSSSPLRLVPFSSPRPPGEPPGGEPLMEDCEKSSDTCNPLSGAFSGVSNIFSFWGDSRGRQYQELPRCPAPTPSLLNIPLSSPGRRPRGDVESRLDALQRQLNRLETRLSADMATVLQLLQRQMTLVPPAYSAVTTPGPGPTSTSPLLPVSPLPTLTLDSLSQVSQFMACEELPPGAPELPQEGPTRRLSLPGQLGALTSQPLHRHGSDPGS
CCN(CC(=O)NCCCn1ccnc1)S(=O)(=O)c1ccc(C)cc1 was tested, and the “hERG current change (%, negative = inhibition) at 1uM” value was 8.39%. Cc1cc(Cn2nc(-c3ccccc3C)cc2C(=O)O)on1 was tested, and the “hERG current change (%, negative = inhibition) at 1uM” value was 11.9%. In the case of C/C(=N\NC(=O)c1ccoc1C)c1cccc2ccccc12, the “hERG current change (%, negative = inhibition) at 1uM” value is reported as 17.2%. In the case of CC(C)CCN(C(=S)Nc1cccc(F)c1)C(C)c1cccs1 (stereo not shown), the “hERG current change (%, negative = inhibition) at 1uM” value is reported as 6.21%. For Cc1ccc(-c2nn3c(C)nnc3c3ccccc23)cc1S(=O)(=O)NCc1ccccc1, the “hERG current change (%, negative = inhibition) at 1uM” value was -15%. For CC(C)C(=O)N1CCN(c2ccccc2NC(=O)c2ccc([N+](=O)[O-])o2)CC1, the “hERG current change (%, negative = inhibition) at 1uM” value was -23.5%. CCc1ccc(OCC(=O)Nc2ccc(S(=O)(=O)Nc3ccccn3)cc2)cc1 was tested, and the “hERG current change (%, negative = inhibition) at 1uM” value was 11.9%. In the case of CC(=O)NC(Cc1ccc(C)cc1)C(=O)NC1CCN(C(=O)c2ccc([N+](=O)[O-])cc2)CC1 (stereo not shown), the “hERG current change (%, negative = inhibition) at 1uM” value is reported as 6.17%. For Cc1ccc(NCc2nnc(SCC#N)o2)c(C)c1, the “hERG current change (%, negative = inhibition) at 1uM” value was -1.84%. In the case of C/C(=N\NC(=O)c1ccn(C)n1)c1ccc(NC(=O)C2CCCC2)cc1, the “hERG current change (%, negative = inhibition) at 1uM” value is reported as 5.84%. For CCNC(=O)Nc1cc2nc(C)n(Cc3ccc(Br)cc3)c2nc1C, the “hERG current change (%, negative = inhibition) at 1uM” value was 7.69%. With CC(C)C(NS(=O)(=O)c1ccccc1)C(=O)N1CCCC1 (stereo not shown) the “hERG current change (%, negative = inhibition) at 1uM” value was 15.4%. In the case of Cc1cccc(NC2=C(C#N)C(=O)NC3(CCCC3)S2)c1, the “hERG current change (%, negative = inhibition) at 1uM” value is reported as 11.4%. With O=C(O)c1ccc(Nc2nc3c(s2)CCCC3)cc1 the “hERG current change (%, negative = inhibition) at 1uM” value was -44.3%. For Cn1c(=O)c(C(=O)COC(=O)c2cc(-c3ccccc3)nc3ccccc23)c(N)n(Cc2ccccc2)c1=O, the “hERG current change (%, negative = inhibition) at 1uM” value was 12%. In the case of COC(=O)C(NC(=O)CCc1nnc2ccc(N3CCCCC3)nn12)C(C)C (stereo not shown), the “hERG current change (%, negative = inhibition) at 1uM” value is reported as 9.65%. For CCOCCCNC(=O)/C(C#N)=C/c1ccc(C(=O)OC)cc1, the “hERG current change (%, negative = inhibition) at 1uM” value was 2.69%. Cc1ccc2nc(NC(=O)CNS(=O)(=O)c3ccc(Br)s3)sc2c1 was tested, and the “hERG current change (%, negative = inhibition) at 1uM” value was 5.76%. With CCc1ccc(-c2cc(C)no2)cc1S(=O)(=O)NCCc1ccc(S(N)(=O)=O)cc1 the “hERG current change (%, negative = inhibition) at 1uM” value was 14.5%. For CC(C(=O)NC1CC1)c1ncc(C(F)(F)F)cc1Cl (stereo not shown), the “hERG current change (%, negative = inhibition) at 1uM” value was 6.91%. CCCCN1C(=O)C(=O)N(CC(=O)Nc2sc(C)c(CC)c2C(=O)OCC)C1=O was tested, and the “hERG current change (%, negative = inhibition) at 1uM” value was 15%. In the case of CCN(CC)Cc1c(O)ccc2c(-c3ccccc3)cc(=O)oc12, the “hERG current change (%, negative = inhibition) at 1uM” value is reported as 2.12%. For CCCn1c(SCC(=O)Nc2nc(C)c(C(=O)OC)s2)nnc1C(C)C, the “hERG current change (%, negative = inhibition) at 1uM” value was -5.47%. For NC(=O)NOCc1ccccc1F, the “hERG current change (%, negative = inhibition) at 1uM” value was 15.9%. With Cc1cc(NCCCO)n2c(nc3ccccc32)c1C#N the “hERG current change (%, negative = inhibition) at 1uM” value was 9.7%. For COc1cccc(OCc2cc(C(=O)N3CCN(C(=O)c4ccco4)CC3)no2)c1, the “hERG current change (%, negative = inhibition) at 1uM” value was -7.14%. For COc1ccc2c(c1)CCc1c(C(=O)NCc3ccc(F)cc3)noc1-2, the “hERG current change (%, negative = inhibition) at 1uM” value was 14.2%. CC(=O)N1CCCc2ccc(NS(=O)(=O)c3ccccc3)cc21 was tested, and the “hERG current change (%, negative = inhibition) at 1uM” value was 16.7%. CN(C)c1ccc(N=Cc2ccco2)cc1 was tested, and the “hERG current change (%, negative = inhibition) at 1uM” value was 2.62%. In the case of CCN(CC)C(=O)Cn1cc(S(=O)(=O)CC(=O)Nc2ccc(F)cc2F)c2ccccc21, the “hERG current change (%, negative = inhibition) at 1uM” value is reported as 8.5%. For O=C(Nc1nccs1)c1ccc(NC(=O)c2ccco2)cc1, the “hERG current change (%, negative = inhibition) at 1uM” value was 7.13%. In the case of CC1=CC=CC2=N/C(=N\S(=O)(=O)c3ccc(F)cc3F)c3ccccc3CN12, the “hERG current change (%, negative = inhibition) at 1uM” value is reported as 0.709%. With CCOC(=O)c1cn(CC)c2cc(N3CCCCC3)c(F)cc2c1=O the “hERG current change (%, negative = inhibition) at 1uM” value was 3.75%. For O=[N+]([O-])c1cccc(NNS(=O)(=O)c2ccccc2F)c1, the “hERG current change (%, negative = inhibition) at 1uM” value was -2.27%. In the case of COc1ccccc1NS(=O)(=O)c1ccc2c(c1)N(C(C)=O)CC(C)S2 (stereo not shown), the “hERG current change (%, negative = inhibition) at 1uM” value is reported as 4.01%. For O=C(O)CC/C(=C\c1ccccc1[N+](=O)[O-])c1nc2ccccc2s1, the “hERG current change (%, negative = inhibition) at 1uM” value was 8.42%. For CC1CCCCC1NC(=O)C1CC(=O)N(Cc2ccccc2)C1 (stereo not shown), the “hERG current change (%, negative = inhibition) at 1uM” value was 10.2%. O=C(NC(=S)Nn1cnc2c(cnn2-c2ccccc2)c1=O)c1ccc(Cl)cc1 was tested, and the “hERG current change (%, negative = inhibition) at 1uM” value was 11.4%. For COc1ccc(N(C)S(=O)(=O)c2cccc(C(=O)OC(C)C(=O)NC3CCCCC3C)c2)cc1 (stereo not shown), the “hERG current change (%, negative = inhibition) at 1uM” value was 12.7%. With CCCCCCCCSc1n[nH]c(N)n1 the “hERG current change (%, negative = inhibition) at 1uM” value was -1.57%. For CCOC(=O)c1[nH]c(C)c(C(=O)N2CCc3c([nH]c4ccccc34)C2c2ccccn2)c1C (stereo not shown), the “hERG current change (%, negative = inhibition) at 1uM” value was 8.78%. Cc1c(NC(=O)CSc2n[nH]c(=O)n2-c2ccccc2)c(=O)n(-c2ccccc2)n1C was tested, and the “hERG current change (%, negative = inhibition) at 1uM” value was 12.8%. With COc1cccc(CC(=O)Nc2cc(S(=O)(=O)N3CCOCC3)ccc2N2CCN(C)CC2)c1 the “hERG current change (%, negative = inhibition) at 1uM” value was 0.424%. With O=C(COC(=O)/C=C/c1ccc(F)cc1)NCc1ccco1 the “hERG current change (%, negative = inhibition) at 1uM” value was 4.62%. For CSc1nc(Cl)c(Cc2ccc(OC(C)C)cc2)c(N2CCOCC2)n1, the “hERG current change (%, negative = inhibition) at 1uM” value was 12.4%. For Cc1nn(-c2ccccc2)c(C)c1C(=O)OCC(=O)N1CC(=O)Nc2ccccc21, the “hERG current change (%, negative = inhibition) at 1uM” value was 11.9%. N/C(=N\OC(=O)Nc1ccccc1)c1ncc([N+](=O)[O-])s1 was tested, and the “hERG current change (%, negative = inhibition) at 1uM” value was 2.58%. For CCn1ccc(C(=O)NC2=C(C#N)CCC2)n1, the “hERG current change (%, negative = inhibition) at 1uM” value was 9.82%. For Cc1oc(-c2ccc(Cl)cc2)nc1CS(=O)CC(=O)NCCN1CCCCCC1 (stereo not shown), the “hERG current change (%, negative = inhibition) at 1uM” value was 9.89%. In the case of CCn1c(Oc2ccccc2C)nc2c1c(=O)n(C)c(=O)n2C, the “hERG current change (%, negative = inhibition) at 1uM” value is reported as 13.2%. In the case of CCN1CCN(C(=O)c2ccc(N3CC4CC(C3)c3cccc(=O)n3C4)c(NC(=O)c3cc(OC)cc(OC)c3)c2)CC1 (stereo not shown), the “hERG current change (%, negative = inhibition) at 1uM” value is reported as 10.2%. With O=C(Nc1ccccc1C(F)(F)F)N1CCN(C(c2ccccc2)c2ccccc2)CC1 the “hERG current change (%, negative = inhibition) at 1uM” value was 18.7%. In the case of O=C(c1ccccc1F)N1CCN(c2ncccn2)CC1, the “hERG current change (%, negative = inhibition) at 1uM” value is reported as 6.3%. C/C(=N\Nc1nccnc1Cl)c1ccc(Cl)c(Cl)c1 was tested, and the “hERG current change (%, negative = inhibition) at 1uM” value was 10.6%. C=C1CCC[C@]2(C)C[C@H]3OC(=O)C(CN4CC(C)OC(C)C4)[C@H]3C[C@@H]12 (stereo partly shown) was tested, and the “hERG current change (%, negative = inhibition) at 1uM” value was -3.22%.
